# Data published in the supplement of paper PMC10126150.
# Values marked as one replicate rest on one cluster of the flow cell; about a third of the high ones do not repeat.
# Tested on: ATP
# Test: switch fluorescence ratio, 500 uM ATP over buffer (Cy3 cluster intensity, sum of 5 cycles each) (fold (ratio)); higher = stronger signal-on switching upon ATP binding; sequences stand for … in TCGTCGGCAGCGTCAGATGTGTATAAGAGACAGTTTTTTTTTTTTTTTTTTTTTTTTT…TC
# Conditions: aptamer strand: ATP DNA aptamer (quencher-CACCTGGGGGAGTATTGCGGAGGAAGG + anchor), 100 nM annealed; ATP concentration: 500 uM; one replicate
# In short: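 Per cluster, summed Cy3 intensity from the target cycles was divided by that from the buffer cycles to give the fluorescence ratio, then averaged per switch-domain sequence. Clusters outside 100-1000 RFU were excluded. The Cy3-labelled switching-strand clusters, on a modified Illumina MiSeq flow-cell, were annealed to 100 nM quencher-labelled ATP aptamer and imaged in selection buffer, then after 15 min with 500 uM ATP at 22 °C, for five cycles with NaOH stripping and re-annealing between them.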
# 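Also: ATP exposure 15 min at 22 °C before imaging.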
row,Sequence,switch fluorescence ratio
1,CACCCGGTTT,1.04
2,CACCCTACGC,1.54
3,CACCGACTAA,1.12
4,CACCGGCTGT,1.03
5,CACCGGTAAT,1.15
6,CACCGGTTTG,0.998
7,CACCGTAAGA,1.68
8,CACCTACACT,0.977
9,CACCTATACC,1.18
10,CACCTATTTA,1.05
11,CACCTCTTGA,0.988
12,CACCTGCAGA,1.15
13,CACCTTTAGT,1.02
14,CACGAAGTG,0.984
15,CACGACGTAT,1.13
16,CACGACTCTT,0.99
17,CACGAGAGG,0.996
18,CACGAGATCC,0.962
19,CACGAGCGG,1.03
20,CACGATTAAT,1.06
21,CACGCCTCCT,1.12
22,CACGCCTTCC,1.44
23,CACGCTGACA,1.3
24,CACGGCACA,1.32
25,CACGGCGTTA,1.02
26,CACGGGCATA,1.12

row,Sequence,switch fluorescence ratio
1,CACGGTCCAT,1.01
2,CACGGTGAGG,0.995
3,CACGTATATA,1.25
4,CACGTCGGGG,0.988
5,CACGTGCCCT,1.04
6,CACGTTAGGC,1.06
7,CACGTTCTC,1.07
8,CACGTTTCTT,1
9,CACGTTTGTA,1.01
10,CACTAGATAT,1.04
11,CACTCAGCAA,3.26
12,CACTCATCG,1.03
13,CACTCCGTAT,2.05
14,CACTCGAGAT,0.975
15,CACTCTAAGT,1
16,CACTCTAATT,1.04
17,CACTCTATGG,1.07
18,CACTCTGATT,1.03
19,CACTCTTGGA,0.975
20,CACTGAGGCG,1.07
21,CACTGAGTTC,1.03
22,CACTGATTAA,0.966
23,CACTGCTATC,2.18
24,CACTGGGTT,0.989
25,CACTGGTCGG,1.03
26,CACTGGTGGT,1

row,Sequence,switch fluorescence ratio
1,CACTGTTGGC,1.01
2,CACTGTTGTT,0.934
3,CACTTCTCTG,1.07
4,CACTTGGGGG,0.983
5,CACTTTTACG,1.14
6,CAGAAAGGTA,1.04
7,CAGAAATAGG,1.02
8,CAGAAATGGT,1.02
9,CAGAACCTGA,1.14
10,CAGAAGTCGG,0.982
11,CAGAATAGGC,1.11
12,CAGAATTAGA,1.02
13,CAGACAAAGA,1.02
14,CAGACAAATT,0.969
15,CAGACAGGGC,1.06
16,CAGACATGAC,1.05
17,CAGACCTCTT,1
18,CAGACGGGCC,1.03
19,CAGACGGGCT,1.08
20,CAGACGGGTT,1.01
21,CAGACTAAGG,1
22,CAGACTATTT,1.01
23,CAGAGAGCTA,0.975
24,CAGAGGAGTC,0.942
25,CAGAGTCCCG,0.943
26,CAGAGTCGCA,1.03

row,Sequence,switch fluorescence ratio
1,CAGATACGTC,1.01
2,CAGATATGTC,0.997
3,CAGATCATAT,0.951
4,CAGATCGAAT,0.988
5,CAGATCGAGC,0.98
6,CAGATGGTG,0.988
7,CAGCAACCGC,1.1
8,CAGCATCAGG,1.07
9,CAGCCGACGG,1.05
10,CAGCCGGGTT,1.01
11,CAGCCGGTTT,0.998
12,CAGCCGTAAA,1.08
13,CAGCCTTTCC,2.09
14,CAGCGGAGTG,0.951
15,CAGCGGCTAC,2.72
16,CAGCGGTACC,1.19
17,CAGCGGTGCG,1.08
18,CAGCGGTGT,1.01
19,CAGCTAGAAT,0.979
20,CAGCTCATTG,1.03
21,CAGCTGCCGT,0.995
22,CAGCTGGAAT,1
23,CAGCTTGTCT,1.09
24,CAGGAAACCG,1.04
25,CAGGAAAGT,0.986
26,CAGGAACTCT,1.02

row,Sequence,switch fluorescence ratio
1,CAGGAAGGCA,1.01
2,CAGGAAGGTT,0.948
3,CAGGAGCAGC,0.928
4,CAGGAGCAGG,1.06
5,CAGGATAGTT,0.982
6,CAGGATCACC,1
7,CAGGATGTGA,0.988
8,CAGGCCAGAG,1.02
9,CAGGCCGCAC,2.73
10,CAGGGACCTC,1.04
11,CAGGGAGTCG,1.05
12,CAGGGCACGC,1.03
13,CAGGGCGAAT,1.02
14,CAGGGCGTTA,0.988
15,CAGGGGTCGC,0.934
16,CAGGGGTGTC,0.996
17,CAGGGGTTAA,0.99
18,CAGGTACACT,1.03
19,CAGGTACCCG,1.01
20,CAGGTATGGA,0.989
21,CAGGTCACA,1.01
22,CAGGTCAGCC,1.17
23,CAGGTCGTCG,0.936
24,CAGGTGACAC,1.02
25,CAGGTGGCTT,1.3
26,CAGGTGTATT,1.53

row,Sequence,switch fluorescence ratio
1,CAGGTGTGGT,1.43
2,CAGGTTATTC,0.934
3,CAGGTTCAGC,0.967
4,CAGGTTGCAG,1.01
5,CAGGTTTTCA,1.01
6,CAGTAAGGCA,0.972
7,CAGTAATGGA,1.08
8,CAGTACACCT,1.23
9,CAGTACGTT,1.02
10,CAGTAGGCTA,1.03
11,CAGTAGGTTT,1.03
12,CAGTAGTTCC,1.08
13,CAGTATAATT,0.972
14,CAGTATCTGT,0.993
15,CAGTCAAGAG,1.09
16,CAGTCCCCCC,1.51
17,CAGTCGGCCC,0.959
18,CAGTCTCGAG,0.95
19,CAGTGAACTA,1.04
20,CAGTGATCAG,0.973
21,CAGTGCCGAA,0.999
22,CAGTGCTGT,0.931
23,CAGTGGATGC,1.04
